From PubChem BioAssay AID1508624 (National Center for Advancing Translational Sciences (NCATS), 2021)
Among all 48,000 compounds or so, about 120 (0.25%) were called active. The shares of active, inactive and inconclusive entries below differ from those in the screen. Calls follow the shape of the dose curve; as a rule, active = well fitted activation curve with a large enough effect; inconclusive = small, poorly fitted or top-dose-only effect, or another doubt; inactive = no such curve, though single readings can be large or run the other way. Where the call is inconclusive, the potency comes from a doubtful curve fit.

Assay: Primary qHTS for Identification of Small Molecule Activators of Huntingtin-Antisense Promoter Activity; also: nearly all actives have a fitted effect of over 55% in size
Settings: HEK293 HTT-AS promoter firefly luciferase reporter, 24 h; activity change, positive = activation: at 57.5 µM (top of the series), percent change from vehicle, -100% = no light
How it was run: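 HEK293 cells carrying firefly luciferase reporters were seeded at 2,500 per well in Opti-MEM and cultured for 24 h. They were then treated with compounds at up to 57.5 uM final for 24 h at 37 degrees C before Dual-Glo luminescence readout.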
Potency is read from the fitted curve at half-maximal effect; tags tell the direction and shape of the fitted curve.

| SMILES | Potency | activity change, positive = activation |
| --- | --- | --- |
| COCCCNC(=O)C1CCN(c2nn3cc(-c4ccc(F)cc4)nc3s2)CC1 | inconclusive: 2.82 µM [activator, partial curve, poor fit] | – |
| O=C(CSc1nnc(NC(=O)Nc2ccccc2)s1)Nc1cccc(F)c1 | inconclusive: 22.4 µM [activator, single point] | – |
| COc1ccc(CCCc2nnc(SCC(=O)Nc3ccc(OC)cc3)o2)cc1 | inactive | – |
| CCCC(=O)Nc1ccc(-c2nc3ncccc3o2)cc1C | inconclusive: 8.91 µM [activator, partial curve, poor fit] | – |
| CCOc1ccc(/C=C/c2nc3ccccc3n2S(=O)(=O)c2ccc(Br)cc2)cc1 | inconclusive: 1 µM [activator, partial curve, poor fit] | – |
| COc1ccc2nc(NC(=O)c3cc(=O)c4ccccc4o3)sc2c1 | active: 3.16 µM | – |
| Cc1ccc(-n2ncc3c(NCCCn4ccnc4)ncnc32)cc1Cl | inconclusive: 3.55 µM [activator, partial curve, poor fit] | – |
| COc1cccc(NC(=O)CSc2nc3ccccc3n2C)c1 | inconclusive: 10 µM [activator, full curve] | – |
| COc1ccc(OC)c(CCNC(=O)c2c(C)nn(-c3ccc(F)cc3)c2-n2cccc2)c1 | inactive | – |
| COc1ccccc1NC(=O)c1cc2ccc3cccnc3c2[nH]1 | inconclusive: 2 µM [activator, full curve, poor fit] | – |
| CC(=O)c1cccc(NC(=O)c2nc3ccccc3n(C)c2=O)c1 | inconclusive: 20 µM [activator, partial curve, poor fit] | – |
| COc1cc(OC)cc(C(=O)Nc2cc(-c3nc4cc(Cl)ccc4o3)ccc2Cl)c1 | inconclusive: 14.1 µM [activator, partial curve] | – |
| CCc1ccc(NC(=O)c2nc3nc(C)cc(C(F)F)n3n2)cc1 | inconclusive: 22.4 µM [activator, partial curve, poor fit] | – |
| COc1ccc(OC)c(S(=O)(=O)Nc2ccc3c(c2)n(C)c(=O)n3C)c1 | inactive | – |
| Cc1c(Cl)cccc1Nc1nn2c(=O)c3ccccc3nc2s1 | inconclusive: 31.6 µM [activator, partial curve, poor fit] | – |
| CC(CNC(=O)c1ccc2c(c1)nc1n2CCCCC1)c1ccccc1 (stereo not drawn) | inconclusive: 2 µM [activator, partial curve, poor fit] | – |
| Cc1ccsc1CN1CCc2nc(Nc3ccccc3)ncc2C1 | inconclusive: 5.62 µM [activator, partial curve] | – |
| O=C(Oc1cccc2cccnc12)c1ccccc1 | – | inconclusive: -37.4% [activator] |
| Cc1cc(C)c(NC(=O)CN(C)S(=O)(=O)c2ccc3c(c2)CCC(=O)N3)c(C)c1 | inactive | – |
| CCn1cc(C(=O)N2CCN(c3ccc(C)cc3)C(C)C2)c(=O)c2cc(S(=O)(=O)N3CCCC3)ccc21 (stereo not drawn) | inconclusive: 7.08 µM [activator, single point] | – |
| COc1ccccc1NC(=O)CSC1=Nc2ccccc2C2=NC(CC(=O)NCc3ccco3)C(=O)N12 (stereo not drawn) | inconclusive: 15.8 µM [activator, partial curve, poor fit] | – |

| SMILES | Potency | activity change, positive = activation |
| --- | --- | --- |
| CC(C)(C)C(=O)Nc1cccc(-c2cn3cccnc3n2)c1 | inconclusive: 28.2 µM [activator, partial curve, poor fit] | – |
| Cc1cccc(NC(=O)CSc2nnc3[nH]c(=O)cc(-c4ccccc4)n23)c1C | inconclusive: 22.4 µM [activator, single point] | – |
| CNc1ncnc2c1cnn2-c1ccc(C)c(C)c1 | inconclusive: 1 µM [activator, full curve, poor fit] | – |
| Cc1cccc(NC(=O)c2ccc(-n3cnc4cccnc43)cc2)c1C | inconclusive: 12.6 µM [activator, partial curve, poor fit] | – |
| COc1cc2ccccc2cc1C(=O)Nc1ccc2oc(-c3ccc(F)cc3Cl)nc2c1 | inconclusive: 22.4 µM [activator, single point] | – |
| O=C(NCCn1ccc2ccccc21)c1ccc(Cl)cc1 | inconclusive: 2.51 µM [activator, full curve] | – |
| CC1CCN(C(=O)c2cc(-c3ccc(Br)cc3)on2)CC1 | inconclusive: 17.8 µM [activator, partial curve, poor fit] | – |
| Cc1cc(C)c(NC(=O)Cn2cnc3c(oc4ccccc43)c2=O)c(C)c1 | inconclusive: 14.1 µM [activator, partial curve, poor fit] | – |
| COc1ccccc1N1CCN(c2ncnc3onc(-c4cccc(Cl)c4)c23)CC1 | – | inconclusive: -45.3% [activator] |
| CCOc1ccc(Nc2ncnc3c2nc2n3CCCC2)cc1 | inconclusive: 1 µM [activator, partial curve, poor fit] | – |
| Brc1ccc(-c2nc3ccccn3c2Nc2ccc3c(c2)OCCO3)o1 | inconclusive: 2.24 µM [activator, single point] | – |
| NC(=O)C1CCN(C(=O)c2cccc(NC(=O)c3nsc4ccccc34)c2)CC1 | inconclusive: 20 µM [activator, single point] | – |
| CCOc1ccc(CNC(=O)CSc2cc(=O)n(CC)c3ccccc23)cc1 | inactive | – |
| Cc1ccccc1-c1noc(-c2cccnc2NCc2ccco2)n1 | inconclusive: 14.1 µM [activator, partial curve, poor fit] | – |
| CCc1nonc1NC(=O)c1oc2ccc(C)cc2c1C | inconclusive: 17.8 µM [activator, partial curve] | – |
| CN(C)c1ccc(-c2nc(-c3ccco3)no2)cc1[N+](=O)[O-] | inconclusive: 0.199 µM [activator, full curve, poor fit] | – |
| O=C(O)Cc1sc(Nc2ccccc2)nc1-c1ccccc1 | inconclusive: 25.1 µM [activator, single point] | – |
| O=[N+]([O-])c1cc(-c2nc(-c3ccco3)no2)ccc1NCc1ccccc1 | inconclusive: 1.58 µM [activator, partial curve, poor fit] | – |
| C=CCn1c(=O)c2cnc(Nc3ccc(N4CCN(C)CC4)cc3)nc2n1-c1cccc(C(C)(C)O)n1 | inactive | – |
| CC(C)c1ccc(CNc2nc(-c3ccco3)nn2C(=O)c2ccc([N+](=O)[O-])cc2)cc1 | inconclusive: 1.58 µM [activator, full curve, poor fit] | – |
| CCCCCN(CCC12CC3CC(CC(C3)C1)C2)C(=O)NCCCc1ccncc1 | inactive | – |

| SMILES | Potency | activity change, positive = activation |
| --- | --- | --- |
| O=C(CSc1nccn1C1CCCC1)Nc1cccc(F)c1 | inconclusive: 10 µM [activator, partial curve] | – |
| Cc1ccc(-n2c(=O)c3ccc(C(=O)NCc4ccco4)cc3n(CC(=O)Nc3ccccc3C(F)(F)F)c2=O)cc1 | inactive | – |
| Cc1ccc(OCC(=O)Nc2cccc(-c3nc4ccccc4s3)c2)cc1 | inconclusive: 2 µM [activator, full curve, poor fit] | – |
| O=C(COc1ccccc1F)Nc1ccc2oc(-c3cccc(Cl)c3)nc2c1 | inconclusive: 17.8 µM [activator, partial curve, poor fit] | – |
| O=C(O)Cc1sc(Nc2ccc(C(=O)O)cc2)nc1-c1ccccc1 | inconclusive: 31.6 µM [activator, single point] | – |
| Cc1ccccc1NC(=O)CCOc1ccccc1 | inconclusive: 14.1 µM [activator, partial curve] | – |
| Cc1ccc(NC(=O)c2cc(CN3CCOCC3)on2)cc1Cl | inconclusive: 7.08 µM [activator, partial curve] | – |
| CCOC(=O)N1CCN(Cc2nc3cc(NC(=O)c4ccc([N+](=O)[O-])cc4)ccc3n2C(C)C)CC1 | inactive | – |
| O=c1c2ccccc2nc2n1CCc1c-2[nH]c2ccccc12 | inconclusive: 1.37 µM [activator, full curve] | – |
| COc1ccc(Nc2ncnc3c2nc2n3CCCC2)cc1Cl | inconclusive: 2.51 µM [activator, partial curve, poor fit] | – |
| C[C@]12C=CC(=O)N[C@@H]1CC[C@H]1[C@H]3CC[C@@H](C(=O)Nc4cc(C(F)(F)F)ccc4C(F)(F)F)[C@@]3(C)CC[C@@H]12 | inactive | – |
| Cc1ccccc1-c1noc(-c2cc(C(C)C)[nH]n2)n1 | inconclusive: 1.26 µM [activator, full curve, poor fit] | – |
| CCOc1ccc2nc(N(Cc3cccnc3)C(=O)c3ccco3)sc2c1 | inconclusive: 1.78 µM [activator, full curve, poor fit] | – |
| O=C(CS(=O)(=O)c1nc(-c2ccc(Cl)cc2)cn1-c1ccccc1)Nc1cccc(Cl)c1 | inconclusive: 3.16 µM [activator, partial curve, poor fit] | – |
| CCc1ccc(NC(=O)N2CCN(c3nnc(C)c4c(C)n(-c5ccc(Cl)cc5)nc34)CC2)cc1 | inactive | – |
| COc1cccc(NC(=O)c2csc3c2CCCCC3)c1 | inconclusive: 1.58 µM [activator, full curve, poor fit] | – |
| O=C(CCCc1nc(-c2ccc(Cl)cc2)no1)NCc1ccco1 | inactive | – |
| Cc1ccccc1CN1C(=O)C(O)(c2c[nH]c3ccccc23)c2cc(Cl)ccc21 (stereo not drawn) | inactive | – |
| C#CCN(C)CCCOc1ccc(Cl)cc1Cl | inconclusive: 7.08 µM [activator, partial curve, poor fit] | – |
| CCc1ccc(NCc2cc3cc4c(cc3n(CC(=O)Nc3ccc(OC)cc3)c2=O)OCO4)cc1 | inactive | – |
| O=C(NCc1cccs1)c1ccc2c(c1)sc1nc(-c3ccccc3)cn12 | inconclusive: 1.78 µM [activator, full curve, poor fit] | – |
